# Test results taken from paper PMC6919601, “Identification of Plasmodium dipeptidyl aminopeptidase allosteric inhibitors by high throughput screening” (PLoS ONE, 2019).
# Where “and” joins values, the source holds several entries; their conditions need not be identical. Identical values can stand only once. Among all 110,000 compounds or so, about 230 (0.21%) showed an effect of 50% or more. The list shows a part of the results. Where a SMILES comes first, the peptide text is derived from it.
# Biological target: DPAP1 (Plasmodium falciparum, UniProt Q8IIJ9)
# Sequence (Q8IIJ9 whole entry, looked up): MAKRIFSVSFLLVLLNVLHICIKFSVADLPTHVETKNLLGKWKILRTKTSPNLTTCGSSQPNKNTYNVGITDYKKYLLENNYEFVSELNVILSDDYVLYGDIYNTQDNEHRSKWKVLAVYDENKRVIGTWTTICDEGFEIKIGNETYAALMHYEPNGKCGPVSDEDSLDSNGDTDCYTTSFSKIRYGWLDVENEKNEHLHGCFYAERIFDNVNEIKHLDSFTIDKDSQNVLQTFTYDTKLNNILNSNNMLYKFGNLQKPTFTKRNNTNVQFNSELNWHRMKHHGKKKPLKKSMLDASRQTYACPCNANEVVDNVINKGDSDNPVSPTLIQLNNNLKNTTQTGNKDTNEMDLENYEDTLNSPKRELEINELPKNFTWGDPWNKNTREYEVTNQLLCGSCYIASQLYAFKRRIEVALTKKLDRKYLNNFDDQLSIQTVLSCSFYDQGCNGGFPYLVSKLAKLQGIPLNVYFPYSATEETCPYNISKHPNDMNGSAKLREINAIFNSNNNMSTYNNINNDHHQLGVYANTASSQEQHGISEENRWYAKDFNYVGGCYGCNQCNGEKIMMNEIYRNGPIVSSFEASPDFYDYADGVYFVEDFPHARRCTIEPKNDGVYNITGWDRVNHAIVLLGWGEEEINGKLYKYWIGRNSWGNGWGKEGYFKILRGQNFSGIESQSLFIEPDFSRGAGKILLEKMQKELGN
# Assay: primary screen, percent inhibition; read by cleavage of a fluorogenic dipeptide substrate; higher = more effect of the substance
# Set-up: species or system P. falciparum D10 trophozoite lysates; single well
# 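Also: 30 min substrate incubation versus DMSO and 10 µM JCP410 controls.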
row,SMILES,% Inhibition @ 10 uM
1,FC(F)(F)c1cc(-c2ccc(Cl)cc2)nc2ccnn12,-0.318%
2,N#CCNC(=O)[C@H](CCS(=O)(=O)Cc1ccccc1)NC(=O)c1ccccc1,12.3%
3,O=C(O)C1Cc2c([nH]c3ccccc23)C(c2cc(Br)ccc2O)N1 (centres unmarked),13.2%
4,O=C1NC(=O)/C(=C\c2cccc3ccccc23)S1,17.3%
5,COc1cc(CN2CCN(C(C)C)CC2)cc(OC)c1OC,5.94%
6,O=C(O)c1ccccc1C(=O)Nc1ccc(N2CCN(c3ccc(F)cc3)CC2)cc1,-3.92%
7,Clc1ccc(C2=Nn3c(nnc3-c3ccc4c(c3)OCO4)SC2)s1,-2.56%
8,C=CCNC(=O)CSc1nc(-c2ccc(OC)cc2)cc(C(F)(F)F)n1,3.88%
9,O=C1CC(N2CCCCC2)C(=O)N1c1ccc(N2CCCCC2)cc1 (centres unmarked),-1.38% and -4.12%
10,O=C(COc1ccc(Br)cc1)Nc1ccccc1C(=O)Nc1ccccc1,1.07%
11,CCOC(=O)N1CCC(/N=c2/c(N(CCc3ccccc3)Cc3ccccc3)c(O)c2=O)CC1,-3.21%
12,O=C(O)C1CCN(S(=O)(=O)N2CCOCC2)CC1,-0.256%
13,O=C(Nc1ccccc1O)/C(=C\c1cccs1)NC(=O)c1ccccc1,3.46%
14,Cc1nn(CC(=O)NCCCN2CCC(N3CCCCC3)CC2)c(=O)c2cccn12,-0.229%
15,Cc1cc2ccccc2n1CCNC(=O)c1cc(Br)ccc1Cl,1.39%
16,O=c1/c(=C/c2cccc(F)c2)sc2nc(-c3ccc(F)cc3)nn12,6.96%
17,O=C(O)C1CC=CCC1C(=O)N1CCc2ccccc21 (centres unmarked),-0.318%
18,Cc1c(C(=O)OCCOC(C)C)[nH]c2c1C(=O)CC(C)(C)C2,1.76%
19,Cc1nc2nc(NCc3cccs3)nn2c(C)c1Cl,-2.4%
20,Cc1cc(OCC(=O)N(C)C2CCCCC2)ccc1Cl,3.47%
21,O=C(NCCCc1nc2ccccc2n1CCOc1ccccc1Cl)c1ccco1,-2.99%
22,O=C1/C(=C\c2ccc(C(F)(F)F)cc2)Cc2ccccc21,5.5%
23,COc1cc(CO)ccc1Oc1nnnn1-c1ccc(C(N)=O)cc1,0.032%
24,COc1cccc2c1OC1(C)CC2C(S(=O)(=O)c2ccc(C)c(C)c2)C(=O)N1C (centres unmarked),0.953%
25,Cc1nc2c(c(C)c1CCC(=O)NCc1ccccn1)c(=O)n(C)c(=O)n2C,6.84%

row,SMILES,% Inhibition @ 10 uM
1,COc1ccc(CNC(=O)CCS(=O)(=O)Cc2ccc(C)cc2)c(OC)c1,-1.21%
2,Cc1ccc(-c2nn(CC(=O)NCc3ccccn3)c(=O)c3ccccc23)cc1S(=O)(=O)N(C)C,-4.91%
3,COc1ccc(-c2[nH]nc3c2C2(C(C#N)=C(N)O3)c3ccccc3-c3ccccc32)cc1,2.32%
4,Cc1ccc(S(=O)(=O)NCC(=O)N2CCCC2C(=O)O)cc1 (centres unmarked) (HELM PEPTIDE1{[Cc1ccc(S(=O)(=O)[*:2])cc1].G.[O=C(O)C1CCCN1[*:1]]}$$$$V2.0),-0.0735%
5,COc1cccc(-c2nn(C)c3sc(C(=O)NCc4ccccc4OC)cc23)c1,2.69%
6,Cc1nc2c(-c3ccccc3)c(C)nn2c(C)c1CC(=O)NCc1ccccc1Cl,-0.933%
7,CC(Oc1cccc2cccnc12)C(=O)O (centres unmarked),6.12%
8,CCc1cccc(C)c1NC(=O)COc1ccccc1,-5.32%
9,Cc1cc(C)c(C)c(OCCCN2CCCC2)c1,-1.64%
10,O=C1CC(c2ccc(C(F)(F)F)cc2)C2=C(CC(c3cccs3)CC2=O)N1 (centres unmarked),3.67%
11,CC(C)Oc1ccc(CNC(=O)Cn2ccc3cc(S(=O)(=O)N4CCCC4)ccc32)cc1,1.76%
12,Cc1ccc(OCCCCN2CCCCC2)c(C)c1,-0.351%
13,O=C1OC(c2ccc(Br)cc2)=N/C1=C1/OC(=O)c2ccccc21,-6.06%
14,CCn1c2ccccc2c2cc(CNc3ccc(F)c(F)c3)ccc21,-0.603%
15,COc1ccc(C2/C(=C(\O)OC3CCCCC3)C(C)=Nc3nnnn32)c(OC)c1OC (centres unmarked),-3.13%
16,CC1(C)CC(=O)C(=C2NC3(CCCCC3)Cc3ccccc32)C(=O)C1,1.37%
17,Cc1nc2c(c(C)nn2C(C)(C)C)c(C)c1CCC(=O)N(C)Cc1ccccc1,0.953%
18,CC(CNC(=O)c1cc(C2CC2)[nH]n1)c1ccccc1 (centres unmarked),-2.74%
19,C=CCC1CCCCC12NC(=O)NC2=O (centres unmarked),3.82%
20,Cc1ccc(NC(=O)CC2SC(Nc3ccc(S(N)(=O)=O)cc3)=NC2=O)cc1 (centres unmarked),2.22%
21,COc1cc(/C=C2/C(=N)N3C=C(C)SC3=NC2=O)ccc1OCc1ccc2c(c1)OCO2,0.565%
22,Cc1ccc(C(=O)N/C(=C\c2ccc(Cl)cc2)C(=O)N2CCOCC2)cc1,-7.02%
23,OCCN(CCO)C1Cc2ccccc2C1,-1.5%
24,Cc1ccc(NS(=O)(=O)c2ccc(F)cc2)cc1Cl,-0.856%
25,Cc1ccc(C(=O)Nc2cccnc2Cl)cc1C,-5.81%

row,SMILES,% Inhibition @ 10 uM
1,O=C(c1ccc2nc(N3CCCCC3)sc2c1)N1CCN(C(=O)c2ccco2)CC1,-2.37%
2,CCc1ccc(C2NC(=O)c3[nH]nc(-c4ccc(OC)cc4)c32)cc1 (centres unmarked),1.9%
3,CCOc1ccc(C(=O)NCC2CCN(C(=O)c3ccc(OCC)cc3)CC2)cc1,5%
4,Cc1nc2ccccc2cc1C(=O)Nc1ccccc1F,8.1%
5,Cc1ccc(-n2ccc(N)c(C#N)c2=O)cc1,-3.16%
6,O=C(Nc1c2c(nn1-c1ccc(Cl)cc1)CS(=O)(=O)C2)c1cccc(C(F)(F)F)c1,7.39%
7,CCCn1nnnc1NCc1ccc(F)cc1,3.38%
8,COCCNC(=O)c1ccc(CS(=O)(=O)Cc2ccccc2C)o1,3.24%
9,COc1ccc(S(=O)(=O)NCCC(=O)NCc2cccs2)cc1,-2.26%
10,COc1ccc(CN2CCN(c3ccccc3)CC2)cc1OC,-1.77%
11,CC(C)C(NC(=O)CCN1C(=O)c2ccccc2C1=O)c1ccccc1 (centres unmarked),2.24%
12,Cc1ccc(Cn2c(=O)c3c(ncn3C)n(C)c2=O)cc1,7.98%
13,O=C(Cn1cnc2onc(-c3ccc(F)cc3)c2c1=O)N1CCN(c2ccccn2)CC1,-4.96%
14,CCc1ccc(C2C(C#N)=C(N)N(c3cccnc3)C3=C2C(=O)CCC3)s1 (centres unmarked),3.79%
15,CC(C)c1ccccc1OCC(=O)Nc1ccc(S(=O)(=O)N2CCCCC2)cc1,0.913%
16,CC1CCCCC1N(C)C1CCN(CCCNC(=O)/C=C/c2cccs2)CC1 (centres unmarked),-4.71%
17,Cc1cc(OCc2nc3ccccc3[nH]2)ccc1C(C)C,-6.82%
18,CCCOc1ccc(C(=O)N(Cc2ccccc2)c2ccccn2)cc1,-4.95%
19,Nc1nc2c(s1)C(=O)c1ccccc1-2,-1.8%
20,O=C(CN1C(=O)c2cccc3cccc(c23)C1=O)NCCCO,-0.949%
21,CCOC(=O)c1c(C)[nH]c(C)c1S(=O)(=O)N1CCOCC1,-5%
22,C=CCn1c2ccccc2c2nnc(SCC(=O)Nc3ccccn3)nc21,-0.597%
23,COc1ccc(C(=O)Nc2ccccc2Cl)cc1OC,-3.13%
24,CC(=O)c1c(C)[nH]c(C(=O)NCc2ccc(C)cc2)c1C,-0.499%
25,C=Cc1ccc(Cn2c(C(=O)OC)c(NC(C)=O)c3c(C)c(C)sc32)cc1,-3.34%

row,SMILES,% Inhibition @ 10 uM
1,c1cnc2[nH]c(Nc3nc4ccccc4s3)nc2c1,-4.15%
2,CC(C)CNS(=O)(=O)c1ccc(CCC(=O)N2CCN(c3ccccc3F)CC2)cc1,2.01%
3,CCc1ccc(C2=NN(CCC(=O)NCCC3=CCCCC3)C(=O)CC2)cc1,-8.34%
4,COc1ccc(C2CC(c3ccc(Cl)cc3)=NN2c2nc(-c3cc(C)ccc3C)cs2)cc1OC (centres unmarked),1.08%
5,Cc1ccc(-n2c(C)cc(C)nc2=O)cc1,1.21%
6,Cc1ccc(C)c(NC(=O)c2cncc(Br)c2)c1,-6.02%
7,CCOC(=O)c1c(S(=O)(=O)NCc2ccc(C)o2)c(C)n(C)c1C,-3%
8,Cc1cc(C)nc(Sc2ccc3nnc(C(F)(F)C(F)(F)C(F)(F)F)n3n2)n1,5.55%
9,Cc1cc(C(=O)Nc2ncc(Br)cc2Br)ccc1[N+](=O)[O-],0.912%
10,CCOc1ccccc1/C=C1/NC(=O)NC1=O,5.37%
11,CCOC(=O)c1sc(N2C(=O)c3oc4ccccc4c(=O)c3C2c2cccc(Cl)c2)nc1C (centres unmarked),-8.7%
12,Cc1ccc(-c2cc(C(=O)N3CCN(C(=O)c4ccco4)CC3)[nH]n2)c(C)c1,2.62%
13,Cc1cc(C(F)F)n2nc(C(=O)Nc3ccc(S(=O)(=O)N4CCCC4)cc3)nc2n1,-1.88%
14,CCOc1ccc(CNS(=O)(=O)c2cc(-c3onc(C)c3C)ccc2C)cc1OC,3.53%
15,Cc1ccc(C(=O)N/C(=C\c2cccs2)C(=O)Nc2ccccc2)cc1C,-6.36%
16,CCOc1ccccc1C(=O)Nc1ccccn1,-7.08%
17,CC(c1ccccc1)N1C(=O)c2ccc(C(=O)NCc3ccco3)cc2C1=O (centres unmarked),-0.132%
18,CC(C)OCCCNC(=O)C1CCN(C(=O)c2cc3sccc3n2C)CC1,3.4%
19,CCN(CC)CCN(C)Cc1cccc(F)c1,3.44%
20,COc1ccccc1CNC(=O)c1ccc2nc3c(cc2c1)CCS3,3.04%
21,OC1CCCN(C2CCN(CCc3ccccc3)CC2)C1 (centres unmarked),-3.6%
22,COc1ccc(C(=O)C2=C(O)C(=O)N(Cc3cccnc3)C2c2ccc(C(C)C)cc2)cc1 (centres unmarked),3.8%
23,CCC(=O)Nc1nc(C)c(-c2csc(Nc3ccc(N(C)C)cc3)n2)s1,0.214%
